{
  "source": "PubChem BioAssay AID1768",
  "about": "(National Center for Advancing Translational Sciences (NCATS), 2009)",
  "note": "Screen size: about 270,000 compounds; about 620 (0.23%) were called active. The shares of active, inactive and inconclusive entries below differ from those in the screen. Calls come from the whole dose curve; as a rule, active = well fitted inhibition curve with a large enough effect in the polarisation, with a control signal flat (not every such curve was filed as active); inconclusive = small, poorly fitted or top-dose-only effect, or effect the other way, or a change in a side signal; inactive = no such curve, though single readings can be large or run the other way; the % refers to the polarisation. Where the call is inconclusive, the potency comes from a doubtful curve fit. A note “side channel” means that the fit belongs to a control or component signal, not to the main read-out. Potency is the fitted concentration of half-maximal effect; tags give direction and shape of the fitted curve or compound fluorescence and quenching.",
  "data": [
    {"target": "Menin (Homo sapiens) (UniProt O00255)", "sequence (O00255 whole entry, looked up)": "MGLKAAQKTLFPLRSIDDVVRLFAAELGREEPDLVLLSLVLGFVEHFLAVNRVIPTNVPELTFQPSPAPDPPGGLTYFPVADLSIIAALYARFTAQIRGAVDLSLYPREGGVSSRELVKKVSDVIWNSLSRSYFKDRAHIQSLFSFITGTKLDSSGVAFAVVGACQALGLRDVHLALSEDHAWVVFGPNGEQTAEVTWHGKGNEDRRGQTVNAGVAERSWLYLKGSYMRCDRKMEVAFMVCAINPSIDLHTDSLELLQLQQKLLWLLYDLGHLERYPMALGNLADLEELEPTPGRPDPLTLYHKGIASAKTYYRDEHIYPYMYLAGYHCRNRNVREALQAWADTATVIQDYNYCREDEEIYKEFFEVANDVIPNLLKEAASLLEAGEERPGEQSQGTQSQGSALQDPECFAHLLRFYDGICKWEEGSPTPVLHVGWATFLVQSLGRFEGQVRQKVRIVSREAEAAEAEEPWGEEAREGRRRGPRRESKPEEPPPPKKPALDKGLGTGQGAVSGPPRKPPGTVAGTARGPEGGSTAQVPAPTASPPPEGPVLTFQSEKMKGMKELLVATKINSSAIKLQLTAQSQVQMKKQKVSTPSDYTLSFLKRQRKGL", "assay": "qHTS Assay for Inhibitors Targeting the Menin-MLL Interaction in MLL Related Leukemias: Competition With Texas Red Labeled MLL-derived Mutant Peptide; for FP activity change, negative = inhibition: % of control where 0% means no effect", "conditions": "fluorescence polarization; FP activity change, negative = inhibition: at 61.6 µM (top of the series)", "values": [
      {"smiles": "O=C(Cc1cccs1)Nc1nnc(SCc2ccc(Br)cc2)s1", "Potency": "inconclusive: 25.1 µM [quencher, side channel, partial curve]"},
      {"smiles": "COc1ccc(Cl)cc1NC(=S)NCCc1c[nH]c2ccccc12", "Potency": "inconclusive: 8.91 µM [quencher, side channel, full curve]"},
      {"smiles": "O=C(CCc1ccccc1)N=C1SC2CS(=O)(=O)CC2N1Cc1ccc(F)cc1", "note": "(stereo unspecified)", "Potency": "inconclusive: 39.8 µM [fluorescent, side channel, single point]"},
      {"smiles": "O=C(O)c1ccc2cc(-c3ccc(O)c(C45CC6CC(CC(C6)C4)C5)c3)ccc2c1", "Potency": "inconclusive: 6.31 µM [quencher, side channel, partial curve]"},
      {"smiles": "CCn1c(/C=C/c2c[nH]c3ccccc23)nc2ccccc2c1=O", "Potency": "inconclusive: 7.94 µM [quencher, side channel, full curve, poor fit]"},
      {"smiles": "O=C(Nc1nc(NC(=O)c2ccco2)n(-c2ccccc2)n1)c1ccccc1", "Potency": "inconclusive: 14.1 µM [quencher, side channel, partial curve]"},
      {"smiles": "CC(C)(C)c1ccc(OCC(=O)N2CCCCCC2)c(Br)c1", "Potency": "inconclusive: 1 µM [fluorescent, side channel, full curve, poor fit]"},
      {"smiles": "CC1NC(=O)NC1CCCCCC(=O)Nc1ccc(F)c(Cl)c1", "note": "(stereo unspecified)", "Potency": "inactive"},
      {"smiles": "O=C(O)c1ccc(N/N=C/c2ccc(OC(=O)c3ccccc3Cl)cc2)cc1", "Potency": "inconclusive: 22.4 µM [quencher, side channel, partial curve]"},
      {"smiles": "O=C(Nc1ccc2nc(-c3cccs3)c(-c3cccs3)nc2c1)N1CCOCC1", "Potency": "inconclusive: 31.6 µM [quencher, side channel, single point]"},
      {"smiles": "COC(=O)C1=C(C(=O)OC)[C@@H]2Nc3ccccc3[C@@]23C[C@@H](C(=O)OC)N(S(=O)(=O)c2c(C)noc2C)C3=N1", "FP activity change, negative = inhibition": "inactive: -16.4% [at 11.7 µM]"},
      {"smiles": "Nc1cccc2[nH]c(C(F)(F)F)nc12", "Potency": "inconclusive: 10 µM [quencher, side channel, partial curve]"},
      {"smiles": "CCCOc1ccc(/C=N/O)cc1", "Potency": "inconclusive: 7.94 µM [inhibitor, partial curve, poor fit]"},
      {"smiles": "Nc1[nH]c(=O)[nH]c(=O)c1N=Nc1cccc(Cl)c1", "Potency": "inconclusive: 10 µM [quencher, side channel, partial curve]"},
      {"smiles": "COc1ccc(-c2nc(C#N)c(NCc3ccco3)o2)cc1", "Potency": "inconclusive: 17.8 µM [quencher, side channel, single point]"},
      {"smiles": "c1ccc(-c2cc3c(N4CCOCC4)ncnc3s2)cc1", "Potency": "inconclusive: 39.8 µM [inhibitor, single point]"},
      {"smiles": "CC(C)c1ccc2oc(=O)cc(CN3CCN(Cc4ccccc4)CC3)c2c1", "Potency": "inconclusive: 11.2 µM [fluorescent, side channel, partial curve]"},
      {"smiles": "O=C(c1ccccc1-c1nc2ccccc2[nH]1)N1CCCCC1", "Potency": "inactive"},
      {"smiles": "O=C(Cn1cc(C(=O)C2CC2)c2ccccc21)Nc1ccc(F)cc1", "Potency": "inconclusive: 39.8 µM [fluorescent, single point]"},
      {"smiles": "CC(C)(C)c1nn2cnnc2n(/N=C/c2cccc3ccccc23)c1=O", "Potency": "inconclusive: 25.1 µM [fluorescent, side channel, single point]"},
      {"smiles": "COc1cc(/C=C/c2sc3ccccc3[n+]2CCCS(=O)(=O)[O-])ccc1O", "Potency": "inconclusive: 7.08 µM [fluorescent, side channel, full curve]"},
      {"smiles": "COc1ccc(NC(=S)NC(NC(=O)C(C)C)C(Cl)(Cl)Cl)c([N+](=O)[O-])c1", "note": "(stereo unspecified)", "Potency": "inconclusive: 35.5 µM [quencher, side channel, single point]"},
      {"smiles": "CCOc1ccccc1-c1nnc(CS(=O)(=O)c2ccccc2)o1", "Potency": "inconclusive: 39.8 µM [inhibitor, single point]"},
      {"smiles": "O=C(Nc1cccc(C(F)(F)F)c1)c1cc2c(s1)-c1ccccc1OC2", "Potency": "inconclusive: 5.62 µM [quencher, side channel, partial curve]"},
      {"smiles": "Cc1ccc(NC(=O)Nc2cccc(Cl)c2)c(C(=O)O)c1", "Potency": "inconclusive: 2 µM [quencher, side channel, full curve]"},
      {"smiles": "O=C(NCCc1c[nH]c2ccccc12)c1ccc(S(=O)(=O)NCc2ccco2)cc1", "Potency": "inconclusive: 15.8 µM [quencher, side channel, partial curve]"},
      {"smiles": "Cc1cccc(NC(=O)CC23CC4CC(C2)CC(n2nnc(C)n2)(C4)C3)c1", "Potency": "inconclusive: 5.62 µM [inhibitor, full curve, poor fit]"},
      {"smiles": "O=C(/C=C/c1ccccc1[N+](=O)[O-])Oc1ccccc1", "Potency": "inconclusive: 28.2 µM [quencher, side channel, partial curve, poor fit]"},
      {"smiles": "COc1ccc(-c2nc3c(c(SCC(=O)Nc4cccc(O)c4)n2)Cc2c(CO)cnc(C)c2O3)cc1", "Potency": "inconclusive: 5.01 µM [inhibitor, partial curve]"},
      {"smiles": "Cc1cc(-c2ccccc2)n(-c2cc(N/N=C/c3ccccc3O)ncn2)n1", "Potency": "inconclusive: 20 µM [quencher, side channel, partial curve]"},
      {"smiles": "CC1=CC(C)[C@@H]2COC(c3ccc(O)cc3)[C@H]1C2C", "note": "(stereo partly specified)", "Potency": "inactive"},
      {"smiles": "O=C(CSC1=NCCS1)Nc1nc(-c2ccccc2)cs1", "Potency": "inconclusive: 39.8 µM [quencher, side channel, single point]"},
      {"smiles": "CCSc1nnc(NC(=O)c2ccc3ccccc3n2)s1", "Potency": "inactive"},
      {"smiles": "CCC(C(=O)NCCC1=CCCCC1)c1ccccc1", "note": "(stereo unspecified)", "Potency": "inconclusive: 3.16 µM [fluorescent, side channel, full curve]"},
      {"smiles": "COC(=O)C1=C(C(=O)OC)[C@@H]2N(Cc3ccccc3)c3ccccc3[C@@]23C[C@@H](C(=O)OC)N(S(=O)(=O)c2ccc(OC)cc2)C3=N1", "FP activity change, negative = inhibition": "inactive: -6.61% [at 11.7 µM]"},
      {"smiles": "OC12CCCCC1C(c1ccc3c(c1)OCO3)N(Cc1cccc(F)c1)CC2", "note": "(stereo unspecified)", "Potency": "inconclusive: 11.2 µM [fluorescent, side channel, partial curve]"}
    ]}
  ]
}
